B1: GPR68, Q15743 (parent)
chain: MGNITADNSSMSCTIDHTIHQTLAPVVYVTVLVVGFPANCLSLYFGYLQIKARNELGVYLCNLTVADLFYICSLPFWLQYVLQHDNWSHGDLSCQVCGILLYENIYISVGFLCCISVDRYLAVAHPFRFHQFRTLKAAVGVSVVIWAKELLTSIYFLMHEEVIEDENQHRVCFEHYPIQAWQRAINYYRFLVGFLFPICLLLASYQGILRAVRRSHGTQKSRKDQIQRLVLSTVVIFLACFLPYHVLLLVRSVWEASCDFAKGVFNAYHFSLLLTSFNCVADPVLYCFVSETTHRDLARLRGACLAFLTCSRTGRAREAYPLGAPEASGKSGAQGEEPELLTKLHPAFQTPNSPGSGGFPTGRLA

Scores whose standard error is large were omitted. Not listed are two conditions whose scores span a narrow range. Names with del lack the residues named; names with ins carry added residues between the positions named. For some assays here: The concentration of ogerin is not given here.

In series [1] the parent is B1. Put plainly: cAMP reporter score (Enrich2 score, wild type = 0); higher = more signal; HEK293T, FACS bins.
Series [2] covers variants of B1. Put plainly: surface expression score (Enrich2 score, wild type = 0); higher = more signal; HEK293T, FACS bins.

Regarding N186_Y187insG, the cAMP reporter score in series [1] (pH 5.5) was -0.402; in series [1] (pH 6), -1.61; in series [1] (pH 6, modulator: ogerin), -0.89; in series [1] (pH 6.5, modulator: ogerin), -0.815.
In the same order, the values of L191Q are -0.487, -0.631, -1.43 and -0.585.
For L191M, the cAMP reporter score in series [1] (pH 5.5) was 0.525; in series [1] (pH 6) it was -0.324; in series [1] (pH 6, modulator: ogerin), 0.771; in series [1] (pH 6.5, modulator: ogerin) it was 0.604. For the same variant, the surface expression score in series [2] is 0.338.
As to L191G, the cAMP reporter score is 0.656 in series [1] (pH 5.5); -0.213 in series [1] (pH 6); 0.948 in series [1] (pH 6, modulator: ogerin); 0.313 in series [1] (pH 6.5, modulator: ogerin). In addition, the surface expression score in series [2] was 0.47.
The corresponding values for L191T are 0.311, -0.507, -0.118, 1.08 and 0.442.
In the case of L191P, the cAMP reporter score in series [1] (pH 5.5) is 0.044; in series [1] (pH 6), -0.415; in series [1] (pH 6, modulator: ogerin), -0.22; in series [1] (pH 6.5, modulator: ogerin) it was -2.09. Moreover, the surface expression score in series [2] is -0.422.
In the case of L191K, the cAMP reporter score was -2.06 in series [1] (pH 5.5); -1.39 in series [1] (pH 6); -1.78 in series [1] (pH 6, modulator: ogerin); -1.57 in series [1] (pH 6.5, modulator: ogerin). For the same variant, the surface expression score in series [2] is -2.23.
Take L191F: the cAMP reporter score in series [1] (pH 5.5) is -0.631; in series [1] (pH 6) it was 0.147; in series [1] (pH 6, modulator: ogerin), -0.346; in series [1] (pH 6.5, modulator: ogerin), -0.683. In addition, the surface expression score in series [2] is -0.337.
Turning to L191S, the cAMP reporter score in series [1] (pH 5.5) was -0.708; in series [1] (pH 6), -1.14; in series [1] (pH 6, modulator: ogerin), -0.465; in series [1] (pH 6.5, modulator: ogerin) it was -0.333. Also, the surface expression score in series [2] was -0.635.
With L191A, the cAMP reporter score was determined as 1.6 in series [1] (pH 5.5); 1.25 in series [1] (pH 6); 1.87 in series [1] (pH 6, modulator: ogerin); 1.16 in series [1] (pH 6.5, modulator: ogerin). In addition, the surface expression score in series [2] was determined as 1.68.
Take L191Y: the cAMP reporter score is 0.531 in series [1] (pH 5.5); -0.6 in series [1] (pH 6); 0.866 in series [1] (pH 6, modulator: ogerin); -0.57 in series [1] (pH 6.5, modulator: ogerin). Further, the surface expression score in series [2] is -0.307.
As to L191I, the cAMP reporter score in series [1] (pH 5.5) was 0.723; in series [1] (pH 6), -0.227; in series [1] (pH 6, modulator: ogerin) it was 1.22; in series [1] (pH 6.5, modulator: ogerin) it was 0.466. Moreover, in series [2], the surface expression score turned out to be 1.11.
As to L191V, the cAMP reporter score in series [1] (pH 5.5) is 0.961; in series [1] (pH 6), 0.446; in series [1] (pH 6, modulator: ogerin), 0.204; in series [1] (pH 6.5, modulator: ogerin), 1.06. Besides, in series [2], the surface expression score was 0.859.
On to L191E, for which the cAMP reporter score was -0.993 in series [1] (pH 5.5); -3.37 in series [1] (pH 6, modulator: ogerin); -0.938 in series [1] (pH 6.5, modulator: ogerin). Also, the surface expression score in series [2] was -2.02.
Turning to L191D, the cAMP reporter score in series [1] (pH 5.5) was -1.22; in series [1] (pH 6), -1.34; in series [1] (pH 6, modulator: ogerin), -1.39.
Consider L191H, for which the cAMP reporter score in series [1] (pH 5.5) was 0.042; in series [1] (pH 6) it was -0.274; in series [1] (pH 6, modulator: ogerin), -0.229; in series [1] (pH 6.5, modulator: ogerin) it was -0.699. Moreover, in series [2], the surface expression score was -0.85.
The corresponding values for L191N are -0.062, -1.76, -0.377, -0.927 and -0.413.
For L191W, the cAMP reporter score in series [1] (pH 5.5) was 0.903; in series [1] (pH 6), -0.278; in series [1] (pH 6, modulator: ogerin), 0.142; in series [1] (pH 6.5, modulator: ogerin) it was -0.527. The surface expression score in series [2] is -0.108.
On to L191R, for which the cAMP reporter score in series [1] (pH 5.5) is -2.42; in series [1] (pH 6) it was -1.09; in series [1] (pH 6, modulator: ogerin) it was -1.72; in series [1] (pH 6.5, modulator: ogerin), -1.11. In series [2], the surface expression score is -2.76.
The corresponding values for I185del are -1.17, -0.023, -0.983, -0.629 and -2.6.
Turning to I185_N186insGSG, the cAMP reporter score was -0.41 in series [1] (pH 5.5); -0.567 in series [1] (pH 6); -0.924 in series [1] (pH 6, modulator: ogerin); -1.36 in series [1] (pH 6.5, modulator: ogerin). The surface expression score in series [2] is -3.14.
The corresponding values for L195_F196del are -1.35, -0.845, -0.854, -1.48 and -2.82.
Y188_R189insGSG: the cAMP reporter score in series [1] (pH 5.5) is -1.46; in series [1] (pH 6), -1.54; in series [1] (pH 6, modulator: ogerin) it was -0.875; in series [1] (pH 6.5, modulator: ogerin) it was -1.51.
N186_Y187insGS: the cAMP reporter score in series [1] (pH 5.5) is -1.63; in series [1] (pH 6), -0.408; in series [1] (pH 6, modulator: ogerin), -1.45; in series [1] (pH 6.5, modulator: ogerin), -1.38. The surface expression score in series [2] was -1.52.
In the same order, the values of Y188_R189del are -1.31, -1.36, -3.36, -2.04 and -1.86.
Regarding C199_L200insG, the cAMP reporter score in series [1] (pH 5.5) was -1.36; in series [1] (pH 6) it was -1.23; in series [1] (pH 6, modulator: ogerin) it was -0.88; in series [1] (pH 6.5, modulator: ogerin), -1.35. The surface expression score in series [2] was -2.11.
In the same order, the values of P197K are -1.45, -1.26, -1.82, -0.691 and -2.24.
The corresponding values for P197A are -0.812, -0.615, -1.23, -1.24 and -2.32.
For the variant P197C, the cAMP reporter score is -1.61 in series [1] (pH 5.5); -1.07 in series [1] (pH 6); -0.783 in series [1] (pH 6, modulator: ogerin); -1.06 in series [1] (pH 6.5, modulator: ogerin). The surface expression score in series [2] is -1.84.
Turning to P197E, the cAMP reporter score in series [1] (pH 5.5) was -0.403; in series [1] (pH 6, modulator: ogerin) it was -0.677.
With P197H, the cAMP reporter score in series [1] (pH 5.5) was -1.06; in series [1] (pH 6), -0.187; in series [1] (pH 6, modulator: ogerin) it was -1.46; in series [1] (pH 6.5, modulator: ogerin) it was -0.954. In addition, in series [2], the surface expression score is -1.77.

The values above are taken from the GPR68 mutational scans of Howard et al. (2025).
